Reference: US20230101803A1, “3CLPRO-TARGETING PHILLYRIN, DERIVATIVE THEREOF, AND USE THEREOF AGAINST NOVEL CORONAVIRUS” (DALIAN FUSHENG NATURAL MEDICINE DEVELOPMENT CO., LTD., priority 2020, published 2023)

System: SARS-CoV-2 strain of COVID-19 virus
Assay: Cytopathic effect (CPE) inhibition of COVID-19 virus in VeroE6 cells in vitro
Details: SARS-CoV-2, VeroE6 cells

Row | Molecule | half maximal inhibitory concentration (IC50) (CPE) | inhibitory effect (compared in the same study) (compared with composition and pure phillyrin)
1 | phillyrin [KD-1] | 179.1 mg/L | –
2 | COc1cc([C@H]2OC[C@H]3[C@@H]2CO[C@H]3c2ccc(OC)c(OC)c2)ccc1O [phillygenin] | – | worse
